Measurements from the supplement of paper PMC10126150.
Values marked as one replicate rest on one cluster of the flow cell; about a third of the high ones do not repeat.

These sequences were tested on ATP (assay: switch fluorescence ratio, 500 uM ATP over buffer (Cy3 cluster intensity, sum of 5 cycles each) (fold (ratio)); higher = stronger signal-on switching upon ATP binding; sequences stand for … in TCGTCGGCAGCGTCAGATGTGTATAAGAGACAGTTTTTTTTTTTTTTTTTTTTTTTTT…TC). Details: aptamer strand: ATP DNA aptamer (quencher-CACCTGGGGGAGTATTGCGGAGGAAGG + anchor), 100 nM annealed; ATP concentration: 500 uM; one replicate.
How it was run: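 Exposure to 500 uM ATP lasted 15 min at 22 °C before imaging, and a selection-buffer image was taken beforehand, for Cy3-labelled switching-strand clusters on a modified Illumina MiSeq flow-cell annealed to 100 nM quencher-labelled ATP aptamer. Five buffer/ATP cycles were run with NaOH stripping and re-annealing between them. The fluorescence ratio per cluster is summed target-cycle over summed buffer-cycle Cy3 intensity, averaged per switch-domain sequence. Clusters outside 100-1000 RFU were excluded.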
TCTTAACGTA gave a switch fluorescence ratio of 1.08.
With TCTTAAGTGT the switch fluorescence ratio was 1.
Sequence TCTTAATGGA has a switch fluorescence ratio of 0.998.
Sequence TCTTAATGTC has a switch fluorescence ratio of 0.985.
TCTTACCACA showed a switch fluorescence ratio of 1.07.
In the case of TCTTACCCCC, the switch fluorescence ratio is reported as 3.05.
Work on TCTTACGCTG yielded a switch fluorescence ratio of 0.981.
TCTTAGGTGT showed a switch fluorescence ratio of 1.04.
TCTTATAAT showed a switch fluorescence ratio of 1.01.
TCTTATCATG was tested, and the switch fluorescence ratio was 1.02.
TCTTCAAAGG gave a switch fluorescence ratio of 1.04.
TCTTCAGGAG gave a switch fluorescence ratio of 1.19.
For TCTTCCATTC, the switch fluorescence ratio was 1.13.
TCTTCCGGCC was tested, and the switch fluorescence ratio was 1.55.
TCTTCGTCGT was tested, and the switch fluorescence ratio was 1.04.
With TCTTCTCACC the switch fluorescence ratio was 1.01.
TCTTCTCTTT was tested, and the switch fluorescence ratio was 0.974.
Work on TCTTGAGACC yielded a switch fluorescence ratio of 1.01.
For TCTTGAGGTA, the switch fluorescence ratio was 1.04.
For TCTTGATAGA, the switch fluorescence ratio was 1.01.
TCTTGCCCGC gave a switch fluorescence ratio of 1.78.
TCTTGCGTAG showed a switch fluorescence ratio of 1.03.
With TCTTGGAGGA the switch fluorescence ratio was 1.03.
Work on TCTTGGATCG yielded a switch fluorescence ratio of 1.03.
Sequence TCTTGGGATA has a switch fluorescence ratio of 1.01.
TCTTGGGATG showed a switch fluorescence ratio of 0.98.
Work on TCTTGGGCG yielded a switch fluorescence ratio of 1.03.
Sequence TCTTGGGGA has a switch fluorescence ratio of 0.99.
Sequence TCTTGTAATG has a switch fluorescence ratio of 1.04.
Sequence TCTTGTAGGT has a switch fluorescence ratio of 1.02.
TCTTGTAGT was tested, and the switch fluorescence ratio was 1.03.
For TCTTGTGCA, the switch fluorescence ratio was 1.01.
TCTTGTGCTG gave a switch fluorescence ratio of 1.01.
In the case of TCTTGTTAAT, the switch fluorescence ratio is reported as 0.955.
TCTTGTTGT was tested, and the switch fluorescence ratio was 0.976.
Sequence TCTTTACTTC has a switch fluorescence ratio of 0.997.
In the case of TCTTTGCTGT, the switch fluorescence ratio is reported as 0.949.
For TCTTTTACAC, the switch fluorescence ratio was 1.02.
TCTTTTCCAT was tested, and the switch fluorescence ratio was 0.979.
Work on TGAAAAGCCT yielded a switch fluorescence ratio of 1.1.
Sequence TGAAAATCCT has a switch fluorescence ratio of 1.14.
With TGAAAATGAG the switch fluorescence ratio was 0.993.
Sequence TGAAACGT has a switch fluorescence ratio of 1.05.
With TGAAACTCGG the switch fluorescence ratio was 0.964.
Work on TGAAAGACAC yielded a switch fluorescence ratio of 1.11.
Sequence TGAAAGGATG has a switch fluorescence ratio of 0.986.
Sequence TGAAAGTTCG has a switch fluorescence ratio of 0.978.
TGAAAGTTGC was tested, and the switch fluorescence ratio was 1.01.
TGAACATACA was tested, and the switch fluorescence ratio was 1.28.
With TGAACATACT the switch fluorescence ratio was 1.17.
TGAACCCACC gave a switch fluorescence ratio of 1.09.
In the case of TGAACCCCGA, the switch fluorescence ratio is reported as 1.
In the case of TGAACCGCAC, the switch fluorescence ratio is reported as 2.94.
TGAACGAACG showed a switch fluorescence ratio of 1.08.
With TGAACGCCCG the switch fluorescence ratio was 1.04.
TGAACGGTTT showed a switch fluorescence ratio of 1.01.
In the case of TGAACTGTTG, the switch fluorescence ratio is reported as 1.01.
Work on TGAACTTATT yielded a switch fluorescence ratio of 0.964.
TGAAGAATAT gave a switch fluorescence ratio of 1.03.
TGAAGAGCAT gave a switch fluorescence ratio of 1.04.
In the case of TGAAGAGCCG, the switch fluorescence ratio is reported as 1.05.
TGAAGCAGTT gave a switch fluorescence ratio of 1.11.
Work on TGAAGCGTCA yielded a switch fluorescence ratio of 1.03.
Work on TGAAGCTAGG yielded a switch fluorescence ratio of 0.999.
In the case of TGAAGGCGAT, the switch fluorescence ratio is reported as 0.995.
For TGAAGGGCTG, the switch fluorescence ratio was 1.
With TGAAGGTAAT the switch fluorescence ratio was 0.991.
TGAAGTTCTA showed a switch fluorescence ratio of 1.02.
TGAATAAGGG was tested, and the switch fluorescence ratio was 1.06.
Work on TGAATACCTT yielded a switch fluorescence ratio of 1.13.
TGAATACTAT showed a switch fluorescence ratio of 0.97.
For TGAATCAGCG, the switch fluorescence ratio was 1.1.
TGAATCCTGG was tested, and the switch fluorescence ratio was 1.05.
Work on TGAATCGATC yielded a switch fluorescence ratio of 1.05.
Sequence TGAATCGTCT has a switch fluorescence ratio of 1.11.
TGAATCTTGC gave a switch fluorescence ratio of 1.2.
